{"source": "PubChem BioAssay (Tox21)", "key": {"[1]": {"test": "qHTS assay to identify small molecule antagonists of the androgen receptor (AR) signaling pathway - cell viability counter screen (AID 743033; further: nearly all actives have a fitted effect of over 45% in size; further: potency means the concentration at half of the fitted maximal effect; on activity change, negative = cytotoxicity: on the % scale 0 is the no-effect control and ±100 the full control effect)", "conditions": "AR-bla HEK293 viability, CellTiter-Glo luminescence, 16 h; activity change, negative = cytotoxicity: at 58.5 µM (top of the series) unless noted"}, "[2]": {"test": "qHTS assay to identify small molecule antagonists of the androgen receptor (AR) signaling pathway using the MDA cell line - cell viability counter screen (AID 743041; further: nearly all actives have a fitted effect of over 45% in size; further: potency means the concentration at half of the fitted maximal effect; on viability change, negative = cytotoxic: on the % scale 0 is the no-effect control and ±100 the full control effect)", "conditions": "MDA-kb2 viability, CellTiter-Fluor, 16 h, cells co-treated with R1881 androgen agonist; viability change, negative = cytotoxic: at 70.3 µM (top of the series) unless noted", "method_in_brief": "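Using the breast carcinoma line MDA-kb2 AR-luc, test chemicals were co-incubated with R1881 for 16 h; CellTiter-Fluor reagent, added at 15.5 h, provided a fluorescence measure of live cells.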"}, "[3]": {"test": "qHTS assay to identify small molecule antagonists of the estrogen receptor alpha (ER-alpha) signaling pathway - cell viability counter screen (AID 743074; calls by dose curve; further: nearly all actives have a fitted effect of over 45% in size; further: potency means the concentration at half of the fitted maximal effect)"}, "[4]": {"test": "qHTS assay to identify aromatase inhibitors - cell viability counter screen (AID 743084);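 further: cells stimulated with testosterone during compound exposure; potency means the concentration at half of the fitted maximal effect; nearly all actives have a fitted effect of over 55% in size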", "conditions": "MCF-7 aro ERE viability, CellTiter-Fluor, 24 h; activity change, negative = cytotoxicity: at 70.3 µM (top of the series) unless noted"}, "[5]": {"target": "Peroxisome proliferator-activated receptor gamma (Homo sapiens) (UniProt P37231)", "sequence (P37231 whole entry, looked up)": "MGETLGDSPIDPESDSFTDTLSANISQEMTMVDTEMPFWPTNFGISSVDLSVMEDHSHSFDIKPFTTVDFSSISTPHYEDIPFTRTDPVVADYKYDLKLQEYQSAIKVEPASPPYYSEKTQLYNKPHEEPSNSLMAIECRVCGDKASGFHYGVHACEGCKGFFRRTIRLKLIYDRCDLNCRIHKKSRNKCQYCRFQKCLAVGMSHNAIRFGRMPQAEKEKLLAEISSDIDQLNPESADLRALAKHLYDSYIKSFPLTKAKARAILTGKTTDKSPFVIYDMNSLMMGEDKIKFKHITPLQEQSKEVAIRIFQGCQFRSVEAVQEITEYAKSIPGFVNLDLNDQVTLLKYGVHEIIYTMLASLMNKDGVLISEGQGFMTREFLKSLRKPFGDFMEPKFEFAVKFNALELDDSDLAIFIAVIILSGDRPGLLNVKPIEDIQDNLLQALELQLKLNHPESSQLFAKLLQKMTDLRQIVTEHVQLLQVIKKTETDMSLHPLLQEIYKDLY", "test": "qHTS assay to identify small molecule agonists of the peroxisome proliferator-activated receptor gamma (PPARg) signaling pathway (AID 743094; active means well fitted activation curve with a large enough effect in the signal ratio in the repeat runs, not every such curve was filed as active; inconclusive means weak or mixed curves, or effect the other way; inactive means no such curve, though single readings can be large or run the other way; the % refers to the signal ratio; further: on the % scale 0 is the no-effect control and ±100 the full control effect)", "conditions": "HEK293H PPARg-UAS-bla, beta-lactamase FRET ratio, 17 h; activation: at 57 µM (top of the series) unless noted", "method_in_brief": "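Cell-based bla reporter, HEK293H background, PPARg-driven UAS. Pre-incubation 5 h, 37C, 5% CO2. Compound 17 h, 37C. Substrate 1 h RT; fluorescence.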"}, "[6]": {"test": "qHTS assay to identify small molecule antagonists of the thyroid receptor (TR) signaling pathway (AID 743065); further: potency means the concentration at half of the fitted maximal effect; nearly all actives have a fitted effect of over 55% in size", "method_in_brief": "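Antagonism measured as loss of luciferase signal in GH3 cells stably carrying a TRE-luciferase reporter, co-treated with compound and T3 (1 nM final) for 23.5 h at 37 C. Viability was read in the same well by CellTiter-Fluor.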"}, "[7]": {"test": "qHTS assay to identify small molecule antagonists of the estrogen receptor alpha (ER-alpha) signaling pathway using the BG1 cell line - cell viability counter screen (AID 743081);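 further: compound given together with 17beta-estradiol as the ER stimulus; potency means the concentration at half of the fitted maximal effect; nearly all actives have a fitted effect of over 45% in size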", "conditions": "BG1Luc4E2 viability, CellTiter-Fluor, 22 h; activity change, negative = cytotoxicity: at 70.3 µM (top of the series)"}, "Aromatase (Homo sapiens)": {"target": "Aromatase (Homo sapiens) (UniProt P11511)", "sequence (P11511 whole entry, looked up)": "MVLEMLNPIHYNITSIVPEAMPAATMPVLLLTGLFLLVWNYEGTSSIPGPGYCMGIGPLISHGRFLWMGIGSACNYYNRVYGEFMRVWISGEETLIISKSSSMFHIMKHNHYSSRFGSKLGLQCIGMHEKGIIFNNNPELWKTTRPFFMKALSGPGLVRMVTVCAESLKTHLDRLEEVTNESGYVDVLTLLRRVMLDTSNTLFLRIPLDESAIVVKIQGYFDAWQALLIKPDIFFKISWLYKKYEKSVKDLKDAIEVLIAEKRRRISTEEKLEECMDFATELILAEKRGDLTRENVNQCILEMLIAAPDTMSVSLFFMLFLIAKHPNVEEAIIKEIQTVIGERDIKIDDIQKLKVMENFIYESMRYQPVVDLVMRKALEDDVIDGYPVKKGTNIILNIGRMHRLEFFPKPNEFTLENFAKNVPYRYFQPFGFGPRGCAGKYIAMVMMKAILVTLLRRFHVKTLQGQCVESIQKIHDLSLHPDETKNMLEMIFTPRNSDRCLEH", "test": "qHTS assay to identify aromatase inhibitors (AID 743083); further: potency means the concentration at half of the fitted maximal effect; nearly all actives have a fitted effect of over 55% in size", "conditions": "MCF-7 aro ERE, testosterone-driven ERE luciferase, 24 h; activity, negative = inhibition: at 70.3 µM (top of the series)"}, "[8]": {"test": "qHTS assay to identify small molecule that activate the aryl hydrocarbon receptor (AhR) signaling pathway - cell viability counter screen (AID 743086)", "method_in_brief": "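Cytotoxicity counter screen: CellTiter-Fluor signal (30 min, 37 C) in 4000 HepG2 cells/well carrying the DRE-luciferase reporter, following 24 h compound exposure at 37 C.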"}, "[9]": {"target": "Aryl hydrocarbon receptor (Homo sapiens) (UniProt P35869)", "sequence (P35869 whole entry, looked up)": "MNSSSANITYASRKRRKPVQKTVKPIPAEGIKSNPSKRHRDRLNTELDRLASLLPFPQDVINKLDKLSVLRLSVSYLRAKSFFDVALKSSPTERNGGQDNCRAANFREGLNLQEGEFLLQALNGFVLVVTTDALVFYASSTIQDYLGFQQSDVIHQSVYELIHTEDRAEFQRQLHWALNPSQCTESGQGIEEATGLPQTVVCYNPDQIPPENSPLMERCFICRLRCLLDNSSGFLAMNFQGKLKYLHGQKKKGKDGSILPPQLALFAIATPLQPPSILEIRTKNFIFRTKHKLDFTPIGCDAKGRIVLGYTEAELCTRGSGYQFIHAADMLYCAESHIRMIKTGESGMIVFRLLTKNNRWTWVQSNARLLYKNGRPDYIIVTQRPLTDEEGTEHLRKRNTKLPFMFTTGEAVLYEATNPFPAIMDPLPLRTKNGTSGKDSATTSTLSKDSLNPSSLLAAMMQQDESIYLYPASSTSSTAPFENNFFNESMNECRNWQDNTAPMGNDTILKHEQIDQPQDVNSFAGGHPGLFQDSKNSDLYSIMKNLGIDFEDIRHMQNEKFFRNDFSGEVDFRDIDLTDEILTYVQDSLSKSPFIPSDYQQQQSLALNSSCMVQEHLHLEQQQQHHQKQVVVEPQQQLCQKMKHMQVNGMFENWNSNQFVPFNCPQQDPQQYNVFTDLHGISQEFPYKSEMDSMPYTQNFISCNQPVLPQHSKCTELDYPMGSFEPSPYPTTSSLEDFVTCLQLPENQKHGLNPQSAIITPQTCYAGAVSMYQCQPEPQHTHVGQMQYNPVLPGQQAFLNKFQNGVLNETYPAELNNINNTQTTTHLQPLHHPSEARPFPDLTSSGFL", "test": "qHTS assay to identify small molecule that activate the aryl hydrocarbon receptor (AhR) signaling pathway (AID 743085); further: potency means the concentration at half of the fitted maximal effect; nearly all actives have a fitted effect of over 15% in size", "method_in_brief": "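HepG2 cells stably carrying a 20-DRE firefly luciferase reporter (HG2L7.5c1) treated with compound for 24 hr at 37C. Luciferase read by ONE-Glo luminescence, with CellTiter-Fluor viability read first.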"}}, "note": "Several values for one entry are separate records, joined by “and”; a condition that tells them apart may be missing. Equal entries are not always repeated. The inconclusive results got no clear call from the source; some entries with a clear call stand among them for comparison. For some assays here: A potency beside an inconclusive call is a rough fit, not a confirmed value. Activity calls are given as the source filed them. Unless noted, the call rests on the fitted dose curve; in most records, active means well fitted curve in the direction sought with a large enough effect in the repeat runs; inconclusive means weak or mixed curves; inactive means no such curve, though single readings can be large; an effect the other way counts as inactive or inconclusive. Tags describe the fitted curve by direction and shape."}
{"smiles": "CC(C)(C)c1ccccc1O", "values": [{"measurement": "Potency", "setting": "[1]", "result": "inconclusive: 62.4 µM [cytotoxic, single point]"}, {"measurement": "Potency", "setting": "[2]", "result": "inactive"}, {"measurement": "Potency", "setting": "[3]", "result": "inactive"}, {"measurement": "Potency", "setting": "[4]", "result": "inconclusive: 69.4 µM [cytotoxic, single point]"}]}
{"smiles": "CC(C)=CC1C(C(=O)OCN2C(=O)C3=C(CCCC3)C2=O)C1(C)C", "note": "(stereo not drawn)", "values": [{"measurement": "Potency", "setting": "[1]", "result": "inconclusive: 54.9 µM [cytotoxic, partial curve, poor fit]"}, {"measurement": "Potency", "setting": "[2]", "result": "inactive"}, {"measurement": "activation", "setting": "[5]", "result": "inconclusive: -14.9%"}]}
{"smiles": "CCCCN(CC)C(=O)SCCC", "values": [{"measurement": "Potency", "setting": "[1]", "result": "inactive"}, {"measurement": "Potency", "setting": "[2]", "result": "inconclusive: 0.0618 µM [rising, full curve, poor fit]"}, {"measurement": "Potency", "setting": "[3]", "result": "inconclusive: 6.92 µM [cytotoxic, full curve, poor fit]"}, {"measurement": "Potency", "setting": "[4]", "result": "inconclusive: 21.9 µM [rising, partial curve, poor fit]"}]}
{"smiles": "O=S(=O)(O)C(F)(F)C(F)(F)C(F)(F)C(F)(F)F", "values": [{"measurement": "Potency", "setting": "[1]", "result": "inconclusive: 51.9 µM [cytotoxic, partial curve, poor fit]"}, {"measurement": "viability change, negative = cytotoxic", "setting": "[2]", "result": "inconclusive: 8.5% [at 95 µM]"}, {"measurement": "Potency", "setting": "[6]", "result": "inconclusive: 29 µM [inhibitor, partial curve, poor fit]"}, {"measurement": "Potency", "setting": "[3]", "result": "inconclusive: 0.463 µM [rising, full curve, poor fit]"}, {"measurement": "Potency", "setting": "[7]", "result": "inconclusive: 27.3 µM [cytotoxic, single point]"}, {"measurement": "Potency", "setting": "Aromatase (Homo sapiens)", "result": "inconclusive: 45.9 µM [inhibitor, partial curve]"}, {"measurement": "Potency", "setting": "[4]", "result": "inconclusive: 81.6 µM [rising, single point]"}, {"measurement": "Potency", "setting": "[8]", "result": "inconclusive: 54.5 µM [phenotype inactive, partial curve]"}]}
{"smiles": "CCOP(=S)(OCC)Oc1ccc2c(C)c(Cl)c(=O)oc2c1", "values": [{"measurement": "Potency", "setting": "[1]", "result": "inconclusive: 55.6 µM [cytotoxic, partial curve, poor fit]"}, {"measurement": "Potency", "setting": "[2]", "result": "inconclusive: 69.4 µM [rising, partial curve, poor fit]"}, {"measurement": "Potency", "setting": "[6]", "result": "inconclusive: 61.1 µM [inhibitor, single point]"}, {"measurement": "Potency", "setting": "[9]", "result": "active: 596 nM and active: 98 nM"}]}
